In all, about 74,000 compounds went through this assay and about 1,100 (1.5%) were called active. The inconclusive results got no clear call from the source; some entries with a clear call stand among them for comparison. Calls follow the shape of the dose curve; as a rule, active = well fitted inhibition curve with a large enough effect; inconclusive = small, poorly fitted or top-dose-only effect; inactive = no such curve, though single readings can be large or run the other way. No potency is given beside an inconclusive call; the fits are too rough.
These compounds were tested against Polyunsaturated fatty acid lipoxygenase ALOX15 (Homo sapiens) (UniProt P16050) (assay: qHTS Assay for Inhibitors of 15-hLO (15-human lipoxygenase)). Settings: purified 15hLO-1, xylenol orange hydroperoxide absorbance; activity change, negative = inhibition: at 57.1 µM (top of the series) unless noted.
Chain of UniProt P16050 (P16050 whole entry, looked up): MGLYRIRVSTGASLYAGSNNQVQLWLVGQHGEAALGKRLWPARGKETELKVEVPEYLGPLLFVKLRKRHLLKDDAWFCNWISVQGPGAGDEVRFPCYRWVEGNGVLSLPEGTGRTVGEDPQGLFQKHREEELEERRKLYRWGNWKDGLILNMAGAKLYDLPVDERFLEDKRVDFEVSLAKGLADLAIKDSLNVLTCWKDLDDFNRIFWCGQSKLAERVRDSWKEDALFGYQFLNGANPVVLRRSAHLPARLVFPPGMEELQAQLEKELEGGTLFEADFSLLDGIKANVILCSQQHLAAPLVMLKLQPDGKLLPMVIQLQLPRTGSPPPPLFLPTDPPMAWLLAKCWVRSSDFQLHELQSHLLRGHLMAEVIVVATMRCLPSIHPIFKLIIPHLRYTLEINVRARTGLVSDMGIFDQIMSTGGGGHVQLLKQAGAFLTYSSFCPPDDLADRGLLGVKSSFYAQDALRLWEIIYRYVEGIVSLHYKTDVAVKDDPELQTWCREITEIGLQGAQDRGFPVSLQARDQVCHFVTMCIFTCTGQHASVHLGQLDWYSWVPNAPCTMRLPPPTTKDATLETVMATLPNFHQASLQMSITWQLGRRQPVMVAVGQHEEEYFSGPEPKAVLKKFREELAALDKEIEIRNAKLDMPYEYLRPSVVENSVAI
How it was run: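 Quantitative HTS in 25 mM Hepes pH 7.5 containing 0.01% Triton X-100: human 15hLO-1 at 40 nM, arachidonic acid at 50 uM, 6 min turnover. Product quantified via ferrous oxidation/xylenol orange, 573:405 nm absorbance ratio.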
For COc1ccc(CCNc2oc(Cc3cccc4ccccc34)nc2C#N)cc1OC, the Potency was “inactive”. In the case of COc1cccc(Nc2ncc3ncc(=O)n(CCC#N)c3n2)c1, the Potency is reported as “inactive”. Fc1ccc(Nc2ccnc(-c3ccc4c(c3)OCO4)n2)cc1 was tested, and the Potency was inconclusive [inhibitor, single point]. With Oc1cc2c(cc1O)C1c3ccc(O)c(O)c3OCC1(O)C2 (stereo unspecified) the Potency was active: 5.01 µM. COc1ccc(OC)c(Nc2cc(C(=O)NCCCN3CCOCC3)c3ccccc3n2)c1 was tested, and the Potency was inconclusive [inhibitor, single point]. COc1ccc(N2C(=O)CC(Nc3ccc(N4CCOCC4)cc3)C2=O)c(OC)c1 (stereo unspecified) was tested, and the Potency was inconclusive [inhibitor, partial curve]. In the case of O=C(O)CCc1ccc(-c2ccc(F)cc2)n1CC(=O)O, the Potency is reported as inconclusive [inhibitor, single point]. For Cc1cc2nc3c(=O)[nH]c(=O)nc-3n(C[C@H](O)[C@H](O)[C@H](O)CO)c2cc1C, the Potency was inconclusive [inhibitor, single point]. CCNc1ncc2nc(CCc3ccccc3)c(=O)n(-c3ccccc3)c2n1 was tested, and the Potency was inconclusive [inhibitor, single point]. FC(F)(F)c1cc(-c2ccco2)nc(NCc2cccnc2)n1 was tested, and the Potency was inconclusive [inhibitor, single point]. With Cc1ccc(-c2nc3ccccc3[nH]2)cc1NC(=O)c1ccco1 the Potency was “inactive”. In the case of CCC(C)Nc1ccc(NC(C)CC)cc1 (stereo unspecified), the Potency is reported as inconclusive [inhibitor, full curve]. O=c1c(CCc2ccccc2)nc2cncnc2n1Cc1ccccc1Cl was tested, and the Potency was “inactive”. With CCOC(=O)O[C@@H](C)OC(=O)[C@@H]1N2C(=O)[C@@H](NC(=O)[C@@H](N)c3ccccc3)[C@H]2SC1(C)C the Potency was “inactive”. In the case of CN(C)Cc1ccccc1-c1nc(N(C)Cc2ccco2)c2ccccc2n1, the Potency is reported as “inactive”. With COCCNc1nc(-c2cccc(NS(C)(=O)=O)c2)nc2ccccc12 the Potency was “inactive”. With COc1cccc(C2CC(=O)N3CN(c4ccccc4F)CSC3=C2C#N)c1 (stereo unspecified) the Potency was inconclusive [inhibitor, partial curve]. For C[C@](O)(c1ccccc1)c1nccc2ccccc12, the activity change, negative = inhibition was inactive: 2.05% [at 11.4 µM]. O=C(Nc1cccc(F)c1)N1CC[C@@]2(CCCN(C(=O)c3ccco3)C2)C1 was tested, and the Potency was “inactive”. In the case of COc1ccc(-c2[nH]ncc2-c2ccc3c(c2)OCCO3)c(O)c1, the Potency is reported as inconclusive [inhibitor, single point]. With O=c1c(-c2cccs2)nc2cnc(Oc3ccccc3)nc2n1Cc1cccs1 the Potency was “inactive”. For COc1ccccc1CN(Cc1cc2cc(C)ccc2[nH]c1=O)Cc1nnnn1CC1CCCO1 (stereo unspecified), the Potency was inconclusive [inhibitor, single point]. For Cn1c(O)c(N=N/C(=N/c2ccccn2)c2ccccn2)c2cc(Br)ccc21, the Potency was inconclusive [inhibitor, single point]. For CN(C)c1cccc(C(=O)Nc2cccc(F)c2)c1, the Potency was inconclusive [inhibitor, partial curve]. c1cncc(-c2nc(-c3ccco3)cs2)c1 was tested, and the Potency was inconclusive [inhibitor, partial curve]. O=C(c1nc2n(n1)C(c1ccc(Cl)cc1)C=C(c1ccccc1)N2)N1CCOCC1 (stereo unspecified) was tested, and the Potency was “inactive”. With Cc1cc(C)n2c(Br)c(CSc3nc4ccccc4o3)nc2n1 the Potency was inconclusive [inhibitor, single point]. In the case of CCn1c(SCc2ccc(C#N)cc2)nnc1-c1ccc(S(=O)(=O)N2CCCCC2)cc1, the Potency is reported as inconclusive [inhibitor, partial curve]. In the case of N#Cc1ccsc1NC(=O)COc1ccc(-c2nnco2)cc1, the Potency is reported as inconclusive [inhibitor, single point]. With CCCn1c(-c2ccc(F)cc2)nc2c(NC3CCN(Cc4ccccc4)CC3)nc(C)nc21 the Potency was active: 20 µM. With CC(=O)Nc1nc(-c2ccc(Cl)cc2)nc(C)c1C(C)=O the activity change, negative = inhibition was inactive: -1.03% [at 11.4 µM]. CO/N=C(/C(=O)NC1C(=O)N2C(C(=O)O)=C(COC(N)=O)CSC12)c1ccco1 (stereo unspecified) was tested, and the Potency was “inactive”. For COc1ccc(Nc2oc(COc3ccccc3F)nc2C#N)cc1, the Potency was inconclusive [inhibitor, partial curve]. With CCOc1ccccc1NC(=O)CC1Nc2cc(C)c(C)cc2NC1=O (stereo unspecified) the Potency was inconclusive [inhibitor, single point]. CN(C)/C=N/c1sc2c(c1C#N)CCC2 was tested, and the Potency was inconclusive [inhibitor, single point]. CCOC(=O)c1c(N)sn(-c2ccccc2C)c1=S was tested, and the Potency was inconclusive [inhibitor, single point]. In the case of Cc1ccccc1-n1c(SC/C(O)=C(\C#N)c2nc3ccccc3[nH]2)nnc1-c1ccncc1, the Potency is reported as inconclusive [inhibitor, partial curve]. CCN(CC)c1ccc(/C=N/NC(=O)c2ccc(O)cc2)cc1 was tested, and the Potency was inconclusive [inhibitor, single point]. For COC(=O)c1cccc(N2C(=O)C(Cl)=C(N3CCOCC3)C2=O)c1, the Potency was inconclusive [inhibitor, single point]. With CC1CN(S(=O)(=O)c2cccc(C(=O)OCc3cc(=O)oc4cc(O)ccc34)c2)CC(C)O1 (stereo unspecified) the Potency was inconclusive [inhibitor, partial curve]. In the case of CCC(c1nnnn1Cc1cccs1)N1CCN(C2CCCC2)CC1 (stereo unspecified), the Potency is reported as “inactive”. For COc1ccc(NC2c3ccccc3C(=O)N2Cc2ccco2)cc1OC (stereo unspecified), the Potency was “inactive”. Cc1cccc2cc(CN(CCCO)C(=O)Nc3cccc(Cl)c3)c(=O)[nH]c12 was tested, and the Potency was active: 20 µM. With CN(C)c1ccc(N=NS(=O)(=O)O)cc1 the Potency was inconclusive [inhibitor, partial curve]. COC(=O)c1cc(=O)nc2sc(-c3ccc(F)cc3)nn12 was tested, and the Potency was inconclusive [inhibitor, partial curve]. In the case of CC1CCN(S(=O)(=O)c2ccc(NC(=O)CN3CCN(C)CC3)cc2)CC1, the Potency is reported as inconclusive [inhibitor, single point].

— PubChem BioAssay AID887 (National Center for Advancing Translational Sciences (NCATS), 2007)
% is scaled to controls: 0 for no effect and ±100 for the full control effect; potency is read from the fitted curve at half-maximal effect; tags tell the direction and shape of the fitted curve.
Also: nearly all actives have a fitted effect of over 55% in size.
